Experiments:
Daudi cells = experiment: In vitro cytotoxicity of ADCs, MTS assay, Daudi (CD25-negative control); format: cell-based, human; settings: 4 days incubation
Description: SU-DHL-1 and Karpas299 cells were from the Leibniz Institute DSMZ-German Collection of Microorganisms and Cell Cultures. Daudi cells were from the American Type Culture Collection. Cell culture medium was RPMI 1640 supplemented with L-Glutamine and 10% FBS. Cells were grown at 37° C., 5% CO2, in a humidified incubator.
The concentration and viability of cultures of suspended cells (at up to 1×10^6/m1) were determined by mixing 1:1 with Trypan blue and counting clear (live)/blue (dead) cells with a haemocytometer. The cell suspension was diluted to the required seeding density (generally 10^5/ml) and dispensed into 96-well flat bottomed plates. For Alamar blue assay, 100 μl/well was dispensed in black-well plates. For MTS assay, 50 μl/well was dispensed in clear-well plates. A stock solution (1 ml) of ADC (20 μg/ml) was made by dilution of filter-sterile ADC into cell culture medium. A set of 8×10-fold dilutions of stock ADC were made in a 24 well plate by serial transfer of 100 μl onto 900 μl of cell culture medium. Each ADC dilution (100 μl/well for Alamar blue, 50 μl/well for MTS) was dispensed into 4 replicate wells of the 96-well plate, containing cell suspension. Control wells received the same volume of culture medium only.
Absorbance was measured at 490 nm.

Karpas299 xenograft = experiment: In vivo anti-tumour activity of ADCs in Karpas299 xenograft model; design: species or system female NCr nu/nu mice
Description: The antibody was conjugated to A and E drug-linkers as described above and tested in the Karpas299 xenograft model. As non-CD25-binding controls, the anti-HIV gp120 antibody, B12, linked to the same warheads was used. At the same time, to investigate any potential anti-tumor activity observed with the non-CD25-binding ADC controls, HuMax-TAC-E and B12-E (both described above) were tested in vivo in combination with 30 fold excess of human IgG.
Procedures: • Set up CR female NCr nu/nu mice with I×KARPAS-299-SPN tumor cells in 0% Matrigel sc in flank. • Cell Injection Volume is 0.1 mL/mouse. • Age at Start Date: 8 to 12 weeks. • Perform a pair match when tumors reach an average size of 100-150 mm^3 and begin treatment. • Body Weight: qd×5 then bi-wk to end • Caliper Measurement: bi-wk to end • Report any adverse reactions or death immediately. • Any individual animal with a single observation of >30% body weight loss or three consecutive measurements of >25% body weight loss will be euthanized. • Any group with two measurements of mean body weight loss of >20% or >10% mortality will stop dosing. The group is not euthanized and recovery is allowed. Within a group with >20% weight loss, individuals hitting the individual body weight loss endpoint will be euthanized. […] Animals are to be monitored individually. […]

B1: HuMax-TAC-E (conjugate)
VH: QVQLVQSGAEVKKPGSSVKVSCKASGGTFSRYIINWVRQAPGQGLEWMGRIIPILGVENYAQKFQGRVTITADKSTSTAYMELSSLRSEDTAVYYCARKDWFDYWGQGTLVTVSSASTKGPSVFPLA
VL: EIVLTQSPGTLSLSPGERATLS[omitted - about 80 residues]TFGGGTKVEIKRTVAAPSVFIFP
In the case of B1, the “EC50” value (Daudi cells) is reported as 0.2737 µg/mL, the “relative activity in combination with 30 mg/kg of IgG” value (Karpas299 xenograft; single IV dose 1 mg/kg ADC + 30 mg/kg human IgG, whole duration of study) is reported as “relative activity was not affected” and the anti-tumor activity (Karpas299 xenograft; single IV dose 0.6 and 1 mg/kg (binding ADCs), 1 mg/kg (non-binding ADCs), FIG. 4) is reported as “most potent anti-tumor activity compared to HuMax-TAC-A”.

From patent US9931415B2, “Pyrrolobenzodiazepine-antibody conjugates” (ADC THERAPEUTICS S.A., priority 2012, dated 2018)
